The source of these data is the supplement of paper PMC12423691.

The list shows a part of the results. Binding of human transcription factors and regulators to the viral nucleoprotein by AlphaScreen, crude cell-free proteins, amounts not normalised, one pass. Fold of the Venus control; higher = more signal. No active / inactive call. Single-pass screen; sequences are the whole Swiss-Prot entries looked up by name.

B1: SCMH1, Q96GD3 (protein)
chain: MLVCYSVLACEILWDLPCSIMGSPLGHFTWDKYLKETCSVPAPVHCFKQSYTPPSNEFKISMKLEAQDPRNTTSTCIATVVGLTGARLRLRLDGSDNKNDFWRLVDSAEIQPIGNCEKNGGMLQPPLGFRLNASSWPMFLLKTLNGAEMAPIRIFHKEPPSPSHNFFKMGMKLEAVDRKNPHFICPATIGEVRGSEVLVTFDGWRGAFDYWCRFDSRDIFPVGWCSLTGDNLQPPGTKVVIPKNPYPASDVNTEKPSIHSSTKTVLEHQPGQRGRKPGKKRGRTPKTLISHPISAPSKTAEPLKFPKKRGPKPGSKRKPRTLLNPPPASPTTSTPEPDTSTVPQDAATIPSSAMQAPTVCIYLNKNGSTGPHLDKKKVQQLPDHFGPARASVVLQQAVQACIDCAYHQKTVFSFLKQGHGGEVISAVFDREQHTLNLPAVNSITYVLRFLEKLCHNLRSDNLFGNQPFTQTHLSLTAIEYSHSHDRYLPGETFVLGNSLARSLEPHSDSMDSASNPTNLVSTSQRHRPLLSSCGLPPSTASAVRRLCSRGVLKGSNERRDMESFWKLNRSPGSDRYLESRDASRLSGRDPSSWTVEDVMQFVREADPQLGPHADLFRKHEIDGKALLLLRSDMMMKYMGLKLGPALKLSYHIDRLKQGKF
B2: NFX1, Q12986 (protein)
chain: MAEAPPVSGTFKFNTDAAEFIPQEKKNSGLNCGTQRRLDSNRIGRRNYSSPPPCHLSRQVPYDEISAVHQHSYHPSGSKPKSQQTSFQSSPCNKSPKSHGLQNQPWQKLRNEKHHIRVKKAQSLAEQTSDTAGLESSTRSESGTDLREHSPSESEKEVVGADPRGAKPKKATQFVYSYGRGPKVKGKLKCEWSNRTTPKPEDAGPESTKPVGVFHPDSSEASSRKGVLDGYGARRNEQRRYPQKRPPWEVEGARPRPGRNPPKQEGHRHTNAGHRNNMGPIPKDDLNERPAKSTCDSENLAVINKSSRRVDQEKCTVRRQDPQVVSPFSRGKQNHVLKNVETHTGSLIEQLTTEKYECMVCCELVRVTAPVWSCQSCYHVFHLNCIKKWARSPASQADGQSGWRCPACQNVSAHVPNTYTCFCGKVKNPEWSRNEIPHSCGEVCRKKQPGQDCPHSCNLLCHPGPCPPCPAFMTKTCECGRTRHTVRCGQAVSVHCSNPCENILNCGQHQCAELCHGGQCQPCQIILNQVCYCGSTSRDVLCGTDVGKSDGFGDFSCLKICGKDLKCGNHTCSQVCHPQPCQQCPRLPQLVRCCPCGQTPLSQLLELGSSSRKTCMDPVPSCGKVCGKPLPCGSLDFIHTCEKLCHEGDCGPCSRTSVISCRCSFRTKELPCTSLKSEDATFMCDKRCNKKRLCGRHKCNEICCVDKEHKCPLICGRKLRCGLHRCEEPCHRGNCQTCWQASFDELTCHCGASVIYPPVPCGTRPPECTQTCARVHECDHPVYHSCHSEEKCPPCTFLTQKWCMGKHEFRSNIPCHLVDISCGLPCSATLPCGMHKCQRLCHKGECLVDEPCKQPCTTPRADCGHPCMAPCHTSSPCPVTACKAKVELQCECGRRKEMVICSEASSTYQRIAAISMASKITDMQLGGSVEISKLITKKEVHQARLECDEECSALERKKRLAEAFHISEDSDPFNIRSSGSKFSDSLKEDARKDLKFVSDVEKEMETLVEAVNKGKNSKKSHSFPPMNRDHRRIIHDLAQVYGLESVSYDSEPKRNVVVTAIRGKSVCPPTTLTGVLEREMQARPPPPIPHHRHQSDKNPGSSNLQKITKEPIIDYFDVQD
B3: ELF2, Q15723 (protein)
chain: MTSAVVDSGGTILELSSNGVENQEESEKVSEYPAVIVEPVPSARLEQGYAAQVLVYDDETYMMQDVAEEQEVETENVETVEASVHSSNAHCTDKTIEAAEALLHMESPTCLRDSRSPVEVFVPPCVSTPEFIHAAMRPDVITETVVEVSTEESEPMDTSPIPTSPDSHEPMKKKKVGRKPKTQQSPISNGSPELGIKKKPREGKGNTTYLWEFLLDLLQDKNTCPRYIKWTQREKGIFKLVDSKAVSKLWGKHKNKPDMNYETMGRALRYYYQRGILAKVEGQRLVYQFKDMPKNIVVIDDDKSETCNEDLAGTTDEKSLERVSLSAESLLKAASSVRSGKNSSPINCSRAEKGVARVVNITSPGHDASSRSPTTTASVSATAAPRTVRVAMQVPVVMTSLGQKISTVAVQSVNAGAPLITSTSPTTATSPKVVIQTIPTVMPASTENGDKITMQPAKIITIPATQLAQCQLQTKSNLTGSGSINIVGTPLAVRALTPVSIAHGTPVMRLSMPTQQASGQTPPRVISAVIKGPEVKSEAVAKKQEHDVKTLQLVEEKPADGNKTVTHVVVVSAPSAIALPVTMKTEGLVTCEK
B4: MYF5, P13349 (protein)
chain: MDVMDGCQFSPSEYFYDGSCIPSPEGEFGDEFVPRVAAFGAHKAELQGSDEDEHVRAPTGHHQAGHCLMWACKACKRKSTTMDRRKAATMRERRRLKKVNQAFETLKRCTTTNPNQRLPKVEILRNAIRYIESLQELLREQVENYYSLPGQSCSEPTSPTSNCSDGMPECNSPVWSRKSSTFDSIYCPDVSNVYATDKNSLSSLDCLSNIVDRITSSEQPGLPLQDLASLSPVASTDSQPATPGASSSRLIYHVL
B5: HINFP, Q9BQA5 (protein)
chain: MPPPGKVPRKENLWLQCEWGSCSFVCSTMEKFFEHVTQHLQQHLHGSGEEEEEEEEDDPLEEEFSCLWQECGFCSLDSSADLIRHVYFHCYHTKLKQWGLQALQSQADLGPCILDFQSRNVIPDIPDHFLCLWEHCENSFDNPEWFYRHVEAHSLCCEYEAVGKDNPVVLCGWKGCTCTFKDRSKLREHLRSHTQEKVVACPTCGGMFANNTKFLDHIRRQTSLDQQHFQCSHCSKRFATERLLRDHMRNHVNHYKCPLCDMTCPLPSSLRNHMRFRHSEDRPFKCDCCDYSCKNLIDLQKHLDTHSEEPAYRCDFENCTFSARSLCSIKSHYRKVHEGDSEPRYKCHVCDKCFTRGNNLTVHLRKKHQFKWPSGHPRFRYKEHEDGYMRLQLVRYESVELTQQLLRQPQEGSGLGTSLNESSLQGIILETVPGEPGRKEEEEEGKGSEGTALSASQDNPSSVIHVVNQTNAQGQQEIVYYVLSEAPGEPPPAPEPPSGGIMEKLQGIAEEPEIQMV
B6: PPARA, Q07869 (protein)
chain: MVDTESPLCPLSPLEAGDLESPLSEEFLQEMGNIQEISQSIGEDSSGSFGFTEYQYLGSCPGSDGSVITDTLSPASSPSSVTYPVVPGSVDESPSGALNIECRICGDKASGYHYGVHACEGCKGFFRRTIRLKLVYDKCDRSCKIQKKNRNKCQYCRFHKCLSVGMSHNAIRFGRMPRSEKAKLKAEILTCEHDIEDSETADLKSLAKRIYEAYLKNFNMNKVKARVILSGKASNNPPFVIHDMETLCMAEKTLVAKLVANGIQNKEAEVRIFHCCQCTSVETVTELTEFAKAIPGFANLDLNDQVTLLKYGVYEAIFAMLSSVMNKDGMLVAYGNGFITREFLKSLRKPFCDIMEPKFDFAMKFNALELDDSDISLFVAAIICCGDRPGLLNVGHIEKMQEGIVHVLRLHLQSNHPDDIFLFPKLLQKMADLRQLVTEHAQLVQIIKKTESDAALHPLLQEIYRDMY
B7: NFKBIL1, Q9UBC1 (protein)
chain: MSNPSPQVPEEEASTSVCRPKSSMASTSRRQRRERRFRRYLSAGRLVRAQALLQRHPGLDVDAGQPPPLHRACARHDAPALCLLLRLGADPAHQDRHGDTALHAAARQGPDAYTDFFLPLLSRCPSAMGIKNKDGETPGQILGWGPPWDSAEEEEEDDASKEREWRQKLQGELEDEWQEVMGRFEGDASHETQEPESFSAWSDRLAREHAQKCQQQQREAEGSRRPPRAEGSSQSWRQQEEEQRLFRERARAKEEELRESRARRAQEALGDREPKPTRAGPREEHPRGAGRGSLWRFGDVPWPCPGGGDPEAMAAALVARGPPLEEQGALRRYLRVQQVRWHPDRFLQRFRSQIETWELGRVMGAVTALSQALNRHAEALK
B8: LMO2, P25791 (protein)
chain: MSSAIERKSLDPSEEPVDEVLQIPPSLLTCGGCQQNIGDRYFLKAIDQYWHEDCLSCDLCGCRLGEVGRRLYYKLGRKLCRRDYLRLFGQDGLCASCDKRIRAYEMTMRVKDKVYHLECFKCAACQKHFCVGDRYLLINSDIVCEQDIYEWTKINGMI
B9: CHCHD3, Q9NX63 (protein)
chain: MGGTTSTRRVTFEADENENITVVKGIRLSENVIDRMKESSPSGSKSQRYSGAYGASVSDEELKRRVAEELALEQAKKESEDQKRLKQAKELDRERAAANEQLTRAILRERICSEEERAKAKHLARQLEEKDRVLKKQDAFYKEQLARLEERSSEFYRVTTEQYQKAAEEVEAKFKRYESHPVCADLQAKILQCYRENTHQTLKCSALATQYMHCVNHAKQSMLEKGG
B10: MEIS2, O14770 (protein)
chain: MAQRYDELPHYGGMDGVGVPASMYGDPHAPRPIPPVHHLNHGPPLHATQHYGAHAPHPNVMPASMGSAVNDALKRDKDAIYGHPLFPLLALVFEKCELATCTPREPGVAGGDVCSSDSFNEDIAVFAKQVRAEKPLFSSNPELDNLMIQAIQVLRFHLLELEKVHELCDNFCHRYISCLKGKMPIDLVIDERDGSSKSDHEELSGSSTNLADHNPSSWRDHDDATSTHSAGTPGPSSGGHASQSGDNSSEQGDGLDNSVASPGTGDDDDPDKDKKRQKKRGIFPKVATNIMRAWLFQHLTHPYPSEEQKKQLAQDTGLTILQVNNWFINARRRIVQPMIDQSNRAGFLLDPSVSQGAAYSPEGQPMGSFVLDGQQHMGIRPAGLQSMPGDYVSQGGPMGMSMAQPSYTPPQMTPHPTQLRHGPPMHSYLPSHPHHPAMMMHGGPPTHPGMTMSAQSPTMLNSVDPNVGGQVMDIHAQ

The target in the experiment is nucleoprotein N of Crimean-Congo hemorrhagic fever virus. Briefly: AlphaScreen luminescence signal relative to Venus negative control (fold); higher = stronger binding to CCHFV N. As for the experimental part: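 AlphaScreen binding of cell-free made, FLAG-GST-tagged human transcription factors and regulators (crude translation products) to biotinylated N protein; signal as fold of the FLAG-GST-Venus control. One pass.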
The molecule B1 returned an AlphaScreen luminescence signal of 3.67.
The figure for B2 is 2.47; for B3 it is 2.6; for B4 it is 3.21.
In the case of B5, the AlphaScreen luminescence signal was 2.
Under B6 stands 2.42; under B7, 4.14.
Under B8 stands 3.53.
The figure for B9 is 2.6.
In turn, B10 registered an AlphaScreen luminescence signal of 1.72.
